A short description of the series: Cytotoxicity Alamar Blue assay, J774.1 macrophages. As to conditions: mouse. A general note: Alamar Blue is a resazurin reagent that responds to reducing activity.
As usually defined, the IC50 is the midpoint of a concentration-inhibition curve. The low end stands for higher potency, the high end for lower potency. In the case of `COc1cc(C)c(C(=O)OC2C(C)OC(OC3CC(C)=CC4C3CC(C)C3/C(C)=C\CC/C(C)=C/C5(C)C=C(C(=O)O)C(C)CC56OC(=O)C(=C6O)C(=O)C43C)C(O)C2O)c(OC)c1` (stereo not shown) [Compound 2, Tetromycin 2], the IC50 at 24 h stood at 50.2 µM.

The molecule `COc1cc(C)c(C(=O)NC2C(C)OC(OC3CC(C)=CC4C3CC(C)C3/C(C)=C\CC/C(C)=C/C5(C)C=C(C(=O)O)C(C)CC56OC(=O)C(=C6O)C(=O)C43C)C(O)C2(C)O)c(O)c1` (stereo not shown) [Compound 1, Tetromycin 1] gave an IC50 at 24 h above 100 µM.

In turn, `COc1cc(O)cc(C)c1C(=O)OC1C(C)OC(OC2CC(C)=CC3C2CC(C)C2/C(C)=C\CC/C(C)=C/C4(C)C=C(C(=O)O)C(C)CC45OC(=O)C(=C5O)C(=O)C32C)C(O)C1O` (stereo not shown) [Compound 4, Tetromycin 4] showed an IC50 at 24 h of 27.5 µM. That is a double-digit micromolar value.

For the molecule `COc1cc(O)cc(C)c1C(=O)OC1C(C)OC(OC2CC=C(C)C3C2CC(C)C2/C(C)=C\CC/C(C)=C/C4C=C(C(=O)O)C(C)CC45OC(=O)C(=C5O)C(=O)C32C)C(O)C1O` (stereo not shown) [Compound 3, Tetromycin 3], the half-maximal inhibitory concentration (IC50) at 24 h was 25.7 µM.

Values taken from publication PMC3210601, “New Tetromycin Derivatives with Anti-Trypanosomal and Protease Inhibitory Activities” (Marine Drugs, 2011).
